From PMC3483465 (FEBS letters, 2012)

Experiments:
[1] = biological target: T1, Escherichia coli DNA damage inducible DNA helicase DinG (E. coli, UniProt P27296 1-716); assay: cell-based or functional assay
T1 sequence (looked up): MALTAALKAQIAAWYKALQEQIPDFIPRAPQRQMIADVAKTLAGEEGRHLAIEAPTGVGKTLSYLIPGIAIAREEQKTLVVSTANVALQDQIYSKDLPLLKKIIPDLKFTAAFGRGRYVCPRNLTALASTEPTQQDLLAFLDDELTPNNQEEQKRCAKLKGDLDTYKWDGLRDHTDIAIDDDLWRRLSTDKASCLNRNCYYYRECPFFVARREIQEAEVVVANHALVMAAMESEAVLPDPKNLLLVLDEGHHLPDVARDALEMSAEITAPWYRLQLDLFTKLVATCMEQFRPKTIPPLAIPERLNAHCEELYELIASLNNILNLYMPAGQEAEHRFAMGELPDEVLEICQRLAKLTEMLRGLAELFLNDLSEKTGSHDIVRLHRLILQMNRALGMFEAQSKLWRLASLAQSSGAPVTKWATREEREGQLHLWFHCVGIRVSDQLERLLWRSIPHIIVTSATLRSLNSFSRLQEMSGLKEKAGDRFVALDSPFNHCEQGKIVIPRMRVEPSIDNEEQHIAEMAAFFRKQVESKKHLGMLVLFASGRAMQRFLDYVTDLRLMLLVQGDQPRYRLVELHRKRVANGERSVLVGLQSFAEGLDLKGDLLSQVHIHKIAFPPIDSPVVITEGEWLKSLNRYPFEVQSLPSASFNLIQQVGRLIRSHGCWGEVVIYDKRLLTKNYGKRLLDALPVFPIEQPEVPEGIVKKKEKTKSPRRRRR

SEC = biological target: the molecule itself; assay: SEC

B1: Escherichia coli single-stranded DNA binding protein (SSB), wild type (natural protein)
chain: not shown
With B1 the “DinG DNA helicase activity, 25, 50 and 100 nM DinG with or without 1 μM SSB” value [1] was ≥ 2 fold and the “stoichiometry N” value (SEC) was 4.
